Reference: the supplement of paper PMC4967469

Tests used:
Assay in all cases: Viability of human cancer cell lines after 72 h of drug (GDSC screen)
[1] = compound: CCC/C=C/C=C/C(=O)O[C@H]1/C(=C/C(=O)OC)C[C@H]2C[C@H]([C@@H](C)O)OC(=O)C[C@H](O)C[C@@H]3C[C@H](OC(C)=O)C(C)(C)[C@](O)(C[C@@H]4C/C(=C/C(=O)OC)C[C@H](/C=C/C(C)(C)[C@]1(O)O2)O4)O3 [Bryostatin 1]; settings: top dose 0.008 µM; top dose inferred
Description: (§1)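 Human cancer cell lines in 384-well plates, medium with 10% serum, drug for 72 h over a 256-fold dose range (nine 2-fold or five 4-fold steps up to the top dose). Adherent lines were fixed and stained with the nucleic acid dye Syto60, suspension lines read with resazurin; signal relative to control wells, capped at 0 and 100%. One two-parameter sigmoid per drug and line, fitted in a mixed model over all curves with the slope shared within a line.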

[2] = compound: Nc1cccc2c1CN(C1CCC(=O)NC1=O)C2=O [Lenalidomide]; settings: top dose 5 µM; top dose inferred
Description: as §1

[3] = compound: COc1ccc(COc2ccc(Cc3cnc(N)nc3N)cc2OC)cc1 [GW-2580]; settings: top dose 20 µM; top dose inferred
Description: as §1

[4] = compound: CC(C)N(CCCNC(=O)Nc1ccc(C(C)(C)C)cc1)C[C@H]1O[C@@H](n2cc(Br)c3c(N)ncnc32)[C@H](O)[C@@H]1O [SGC0946]; settings: top dose 0.5 µM; top dose inferred
Description: as §1

Cell Line | AUC [1] | IC50 [1] | AUC [2] | IC50 [2] | AUC [3] | IC50 [3] | AUC [4] | IC50 [4]
NCI-H596 (lung adenocarcinoma, adherent) | 0.98 | > 8 nM | 0.982 | > 5 µM | 0.982 | > 20 µM | 0.972 | > 500 nM
NCI-H647 (non-small cell lung carcinoma, adherent) | 0.964 | > 8 nM | 0.985 | > 5 µM | 0.979 | > 20 µM | 0.944 | > 500 nM
NCI-H650 (lung adenocarcinoma, adherent) | 0.983 | > 8 nM | 0.985 | > 5 µM | 0.986 | > 20 µM | 0.984 | > 500 nM
NCI-H661 (large cell lung carcinoma, adherent) | 0.982 | > 8 nM | 0.964 | > 5 µM | 0.976 | > 20 µM | 0.98 | > 500 nM
NCI-H720 (lung carcinoid, suspension) | 0.99 | > 8 nM | 0.992 | > 5 µM | 0.991 | > 20 µM | 0.991 | > 500 nM
NCI-H727 (lung carcinoid, adherent) | 0.882 | > 8 nM | 0.975 | > 5 µM | 0.973 | > 20 µM | 0.973 | > 500 nM
NCI-H747 (large intestine, adherent) | 0.97 | > 8 nM | 0.98 | > 5 µM | 0.973 | > 20 µM | 0.979 | > 500 nM
NCI-H810 (large cell lung carcinoma, adherent) | 0.966 | > 8 nM | 0.987 | > 5 µM | 0.983 | > 20 µM | 0.984 | > 500 nM
NCI-H838 (lung adenocarcinoma, adherent) | 0.97 | > 8 nM | 0.987 | > 5 µM | 0.966 | > 20 µM | 0.983 | > 500 nM
NCI-H841 (small cell lung carcinoma, adherent) | 0.968 | > 8 nM | 0.988 | > 5 µM | 0.972 | > 20 µM | 0.958 | > 500 nM
NCI-H1048 (small cell lung carcinoma, adherent) | 0.99 | > 8 nM | 0.989 | > 5 µM | 0.978 | > 20 µM | 0.989 | > 500 nM
NCI-H1092 (small cell lung carcinoma, suspension) | 0.99 | > 8 nM | 0.99 | > 5 µM | 0.967 | > 20 µM | 0.983 | > 500 nM
NCI-H1304 (small cell lung carcinoma, suspension) | 0.978 | > 8 nM | 0.988 | > 5 µM | 0.959 | > 20 µM | 0.858 | 463 nM
NCI-H1417 (small cell lung carcinoma, suspension) | 0.977 | > 8 nM | 0.963 | > 5 µM | 0.971 | > 20 µM | 0.978 | > 500 nM
NCI-H1435 (lung adenocarcinoma, semi-adherent) | 0.953 | > 8 nM | 0.986 | > 5 µM | 0.961 | > 20 µM | 0.992 | > 500 nM
NCI-H1437 (lung adenocarcinoma, adherent) | 0.906 | > 8 nM | 0.976 | > 5 µM | 0.986 | > 20 µM | 0.983 | > 500 nM
NCI-H1563 (lung adenocarcinoma, adherent) | 0.951 | > 8 nM | 0.975 | > 5 µM | 0.985 | > 20 µM | 0.983 | > 500 nM
NCI-H1568 (lung adenocarcinoma, adherent) | 0.949 | > 8 nM | 0.976 | > 5 µM | 0.98 | > 20 µM | 0.979 | > 500 nM
NCI-H1581 (large cell lung carcinoma, semi-adherent) | 0.99 | > 8 nM | 0.989 | > 5 µM | 0.958 | > 20 µM | 0.988 | > 500 nM
NCI-H1623 (lung adenocarcinoma, adherent) | 0.985 | > 8 nM | 0.985 | > 5 µM | 0.979 | > 20 µM | 0.982 | > 500 nM
NCI-H1648 (lung adenocarcinoma, adherent) | 0.91 | > 8 nM | 0.984 | > 5 µM | 0.968 | > 20 µM | 0.982 | > 500 nM
NCI-H1651 (lung adenocarcinoma, adherent) | 0.984 | > 8 nM | 0.987 | > 5 µM | 0.966 | > 20 µM | 0.97 | > 500 nM
NCI-H1666 (lung adenocarcinoma, semi-adherent) | 0.981 | > 8 nM | 0.983 | > 5 µM | 0.983 | > 20 µM | 0.985 | > 500 nM
NCI-H1688 (small cell lung carcinoma, adherent) | 0.98 | > 8 nM | 0.987 | > 5 µM | 0.983 | > 20 µM | 0.984 | > 500 nM
NCI-H1693 (lung adenocarcinoma, adherent) | 0.924 | > 8 nM | 0.925 | > 5 µM | 0.971 | > 20 µM | 0.973 | > 500 nM
NCI-H1703 (lung adenocarcinoma, adherent) | 0.98 | > 8 nM | 0.979 | > 5 µM | 0.965 | > 20 µM | 0.975 | > 500 nM
NCI-H1755 (lung adenocarcinoma, adherent) | 0.966 | > 8 nM | 0.977 | > 5 µM | 0.848 | 18.6 µM | 0.977 | > 500 nM
NCI-H1781 (lung adenocarcinoma, adherent) | 0.985 | > 8 nM | 0.989 | > 5 µM | 0.989 | > 20 µM | 0.988 | > 500 nM

A lower IC50 marks a more sensitive line; a fit beyond the top or the lowest dose is shown as a bound at that dose. The AUC spans the tested range (256-fold, ending at the top dose) of the same fit; it is 1 without any effect and falls as sensitivity rises. Where the top dose is marked as inferred, it was calculated from the reported fits.
